In all, about 13,000 compounds were measured (“IFI”: median about 4, highest 2% from about 17 on). The list shows a part of the results.

Here are results for 93 compounds from ChEMBL document CHEMBL1157539, “Thousands of chemical starting points for antimalarial lead identification” (Nature, 2010).

The assay is described as follows: GSK_TCMDC: Inhibition Frequency Index (IFI). The number of non-kinase HTS assays where a compound showed > 50 % inhibition, expressed as a percentage of the number of such assays in which the compound was tested (-0 is zero). In kind it is functional.
With `COc1ccc2nccc(N3CCCN(CCNCc4ccc5c(n4)NC(=O)CS5)CC3)c2n1`, the IFI came to 2.8%. With `O=C(NCCCCN1CCN(c2cccc(Cl)c2Cl)CC1)c1ccc2c(c1)CCN(C1CCC1)CC2` the figure was 10%; with `COc1ccc(CN2CCCN(Cc3cccc(NC(=O)c4ccc5ccccc5c4)c3)CC2)cc1`, 5.52%. With `CCOC(=O)c1ccc(N2CCN(c3cc(Cl)ccc3C)CC2)c(NC(=O)Nc2ccc(Cl)c(Cl)c2)c1` the figure was -0%. With `CN(C)CCCOc1c(C(C)(C)C)cc(-c2cc(C(C)(C)C)c(OCCCN(C)C)c(C(C)(C)C)c2)cc1C(C)(C)C` the figure was 4.93%; with `COc1ccccc1Cc1c(C)nc2nc(N)nc(N)c2c1C`, 2.24%. As for `CC(C)(CNC(=O)[C@@H]1CCCN(CCOc2ccc(Cl)cc2)C1)c1nc(-c2ccc(Cl)c(O)c2)c(-c2ccncc2)[nH]1`, the IFI came out at 2.92%.

In turn, `Cc1nc(C(C)Nc2nncc(-c3ccc(Cl)cc3)n2)cs1` (stereo not drawn) registered an IFI of 0%. With `COc1ccc(Nc2nccc(NCCNC(=O)Nc3ccccc3F)n2)cc1` the figure was 3.08%; with `O=C(Nc1cccc(-c2ccc(NCCCN3CCCC3)nc2)c1)c1ccccc1`, 0%; with `Cc1cc(NC(=O)CCN2CCN(c3cccc(Cl)c3Cl)CC2)ccc1N1CCN(C(C)C)CC1`, 13.2%. Under `CC(C)(CNCc1ccc(F)c(F)c1)c1nc(-c2ccc(Cl)c(O)c2)c(-c2ccncc2)[nH]1` stands 7.8%; under `CC(C)N1CCN(C(CN2CCN(CCCOc3cccc4ccccc34)CC2)c2ccc(F)cc2)CC1` (stereo not drawn), 11.5%. As for `CCCc1cc2c3c(N)nc(N)nc3ccc2n1C(CC)CC`, the IFI was found to be 8.84%. Compound `Cc1cccc2nc(-c3ccc(-c4cccc(CNCc5ccccc5)c4)cc3)[nH]c12` showed an IFI of 5.77%. In turn, `Cc1cc(NCCC(=O)NCCOc2ccccc2)nc(NCCc2ccccc2)n1` displayed an IFI of 6.82%. With `CC(=O)c1sc2ccccc2c1O` the figure was 1.47%. Under `Cc1ccc(/C=C/C(=O)NC2CCC(N3CCC(c4ccccc4C)CC3)CC2)cc1F` (stereo not drawn) stands 13.3%; under `COc1ccc2nccc([C@@H](O)CN3CCC(NCCOc4cc(C(F)(F)F)ccc4F)CC3)c2c1`, 2.21%; under `CC(C)Cc1c(O)nc(SCCN2CCOCC2)[nH]c1=O`, -0%. Under `COc1ccc(C(=O)Cn2nc(-c3ccc(Cl)cc3)ccc2=O)c(OC)c1` stands 3.7%; under `COc1cccc(CCc2ccc(O)c3c2C[C@H]2C[C@H]4[C@H](N(C)C)C(O)=C(C(N)=O)C(=O)[C@@]4(O)C(O)=C2C3=O)c1`, 8.41%. In the case of `O=c1cc(NCCCNCc2ccc(C(F)(F)F)c(F)c2)[nH]c2ccccc12`, the IFI amounted to 5.07%.

Compound `O=S(=O)(c1cccc(C(F)(F)F)c1)N1CCC(CO)(Cc2cccc(C(F)(F)F)c2)CC1` returned an IFI of 4.76%.

In turn, `COc1ccc2nc(N)nc(C)c2c1` came in with an IFI of 2.24%. With `Nc1ccc(-c2cc(Cl)cc(Cl)c2)cc1-c1cc2ccccc2[nH]1` the figure was -0%; with `O=[N+]([O-])c1ccc(Nc2nc(N/N=C/c3cc(Cl)cc(Cl)c3O)nc(Nc3ccccc3)n2)cc1`, 4.83%. Regarding `O=C(CCC1CCCCC1)NCCNc1cccc2ccccc12`, the IFI came to 1.47%.

Consider `COc1cc2nccc(Nc3ccc4c(cnn4Cc4ccccc4F)c3)c2cc1OC`, for which the IFI was determined as 3.76%. With `Cc1onc(-c2ccccc2Cl)c1C(=O)Nc1cc(Cl)c(Cl)cc1Cl` the figure was 1.45%. Under `Cc1ccc2[nH]c(-c3ccccc3)cc(=NN=Cc3cccnc3)c2c1` stands 1.52%; under `CCN(CC)CCCN(C(=O)Nc1c(Cl)cncc1Cl)c1nc(-c2ccc(F)cc2)cs1`, 9.52%; under `CN1CCOc2ccc(Nc3nnc(-c4cccc(-c5cccnc5)c4)o3)cc2C1`, 0%.

`COc1c(C2CCN(CCCCNC(=O)c3cccc(-c4ccc(C(F)(F)F)cc4)c3)CC2)ccc2c1CCCC2`: the IFI came to 10.5%. With `CN(C)Cc1ccc(-c2cccc(NC(=O)c3ccc(Cl)cc3)c2)cc1` the figure was 3.92%; with `CC(C)C[C@H](NC(=O)c1ccc(OCCN2CCOCC2)cc1)C(=O)NC(/C=N/N1CCCC1=O)C(C)C` (stereo partly drawn), 5.45%. Compound `O=C(Nc1ccc([N+](=O)[O-])cc1)Nc1cc(OCC(F)(F)F)cc(OCC(F)(F)F)c1` gave an IFI of 9.6%.

`COc1cc(Cl)c(C)cc1N(Cc1ccccc1-c1ccccc1)S(=O)(=O)c1ccc(C(F)(F)F)cc1` returned an IFI of 0.7%. Under `O=C(Nc1cc(Cl)cc(Cl)c1)Nc1ccccc1C(=O)NC1CCCCC1` stands 11.7%; under `CCN(CCO)Cc1ccc(-c2ccc(NS(=O)(=O)c3cccc4cccnc34)cc2)cc1`, 4.17%. `S=C(NCCCCCN1CCC(c2c[nH]c3ccccc23)CC1)Nc1cc(Cl)cc(Cl)c1` gave an IFI of 3.47%.

`Cc1nc(N)nc(N)c1CCCOc1ccccc1Br` registered an IFI of 2.08%.

On to `CCN(CCO)CCCC(C)Nc1ccnc2cc(Cl)ccc12` (stereo not drawn), for which the IFI was 0%. Compound `O=C(NCCCCCN1CCC(c2c[nH]c3ccccc23)CC1)Nc1cccc(I)c1` came in with an IFI of 4.62%. Under `CC1(C)N=C(N)N=C(N)N1c1cccc(Cl)c1` stands 1.42%; under `N=C(N)c1ccc(-c2cc3ccc(C(=N)N)cc3[nH]2)cc1`, 0.72%. Compound `COC(=O)CCCCCOc1cc(Cc2cnc(N)nc2N)cc(OC)c1OC` gave an IFI of 1.47%. Under `O=C(Nc1ccc(F)cc1)NC1CCN(c2ccnc3cc(Cl)ccc23)CC1` stands 1.59%; under `O=C(NC1CCCCC1)N(Cc1cccc(-c2ccc(CNCc3ccc4c(c3)OCO4)cc2)c1)C1CCN(Cc2ccccc2)CC1`, 5.84%. With `CCCCCCOc1ccc(/C(N)=N\Cc2ccccc2)c2c1CCCC2` the figure was 13.3%; with `COc1ccc(C2CC(=O)C3=C(C2)NC(C)=C(C(=O)OC(C)C)C3c2ccccc2F)cc1OC` (stereo not drawn), -0%; with `CC(C)(CNCc1cccc(Oc2cccc(C(F)(F)F)c2)c1)c1nc(-c2ccnc(N)n2)c(-c2ccc(Cl)c(O)c2)[nH]1`, 4.35%. Under `COc1cccc(-c2csc(C(=O)NCC3CCN(Cc4ccc(C(C)C)cc4)C3)c2)c1` (stereo not drawn) stands 8%; under `COc1cccc(CN2CCCC(OC(c3ccccc3)c3ccccc3)C2)c1O` (stereo not drawn), 5.08%. The compound `COc1cc(OC)nc(-c2cccc(NC(=O)c3ccc4c(=O)n(CCN5CCCCC5)cnc4c3)c2)n1` gave an IFI of 3.03%. With `CCC(C)c1ccc(NC(=O)Nc2ccc(Cn3ncc(N4CCCNCC4)c(Cl)c3=O)cc2)cc1` (stereo not drawn) the figure was 11.8%; with `COc1cc(CCOc2c(C)nc(N)nc2N)cc(OC)c1OC`, 2.17%; with `O=C(Nc1cccc([N+](=O)[O-])c1)N(Cc1ccc(Cl)c(Cl)c1)C1CCNCC1`, 1.52%. With `OC(CNc1ccnc(Nc2cccc(Cl)c2)n1)c1ccc(C(F)(F)F)cc1` (stereo not drawn) the figure was 11%; with `O=C(/C=C/c1ccc(Cl)c(Cl)c1)NCCCCCN1CCC(C(=O)Nc2ccc(Cl)cc2)CC1`, 12.3%. With `N#Cc1ccc(N2CCN(Cc3ccc(-c4ccc(-c5nc6ccccc6[nH]5)s4)cc3)CC2)nc1`, the IFI is 2%.

`CC(O)C1CCCCN1C(=O)c1ccc(-c2cccc(-c3nc4cc(F)ccc4[nH]3)c2)cc1` (stereo not drawn): the IFI turned out to be 5.61%. With `OCCN1CCN(Cc2cccc(-c3ccc(-c4nc5cc(C(F)(F)F)ccc5[nH]4)s3)c2)CC1` the figure was 10.7%; with `CN1CCN(CC2(Nc3nccc(NCc4ccc(Cl)cc4Cl)n3)CCCCC2)CC1`, 35.7%. `O=C(c1ccco1)N1CCN(c2nc(-c3ccc(Cl)cc3)nc3ccccc23)CC1` returned an IFI of 0%. With `Cc1cc2c3c(N)nc(N)nc3ccc2n1C(C)C` the figure was 3.6%. Under `CC1(C)[C@H]2CC[C@@H](CNc3nc(NCCc4c[nH]cn4)nc(NCc4cc(F)ccc4F)n3)[C@@H]1C2` stands 1.44%; under `COc1cccc(NC(=O)Cn2c(C)c(C(=O)C(F)(F)F)c3ccccc32)c1`, 0.68%. Under `N#Cc1ccc(-n2cc(C(=O)Nc3ccc4c(c3)CCN(C3CCC3)CC4)c(C(F)(F)F)n2)cc1` stands 7.46%; under `COc1cccc(C2CCN(CCN3CCC(NC(=O)c4ccc(-c5ccc(Cl)cc5)cc4)CC3)CC2)c1`, 3.57%; under `Cc1cccc2nc(-c3cccc(-c4ccc(NC(=O)CS(C)(=O)=O)cc4)c3)[nH]c12`, 1.8%. Consider `Nc1nc(N)c2c(Oc3cccc(Cl)c3)cccc2n1`, for which the IFI stood at 5.04%.

`Cc1nc(C)c(-c2ccc(-c3ccc(F)cc3)cc2)c(O)c1Cl`: the IFI came out at 0.78%. Compound `COc1ccccc1N1CCN(CCCCNC(=O)c2ccc(NC(=O)c3ccc4ccccc4c3)cc2)CC1` returned an IFI of 5.51%. In turn, `Cc1ccc2c(=O)n(C)c(=O)n(C)c2n1` had an IFI of 0.76%. With `Cn1nc(-c2cccc(CNCc3ccccc3)c2)c2cnc(NC3CCCC3)nc21` the figure was 4.76%; with `COc1ccc(-c2ccc([N+](=O)[O-])cc2C(=O)NCC(C)Oc2ccc(C(F)(F)F)cc2)cc1` (stereo not drawn), 4.5%; with `CCCCc1cc(NCC)nc(Nc2ccc(OC)cc2)n1`, 7.04%. With `Fc1ccc2[nH]c(-c3ccc(-c4cccc(CN5CCC(CCN6CCCCC6)CC5)c4)cc3)nc2c1` the figure was 6.94%; with `Cc1nc(-c2ccc(-c3ccc(C(=O)Nc4ccc(I)c(OCC5CCCN5C)c4)cc3)c(C)c2)no1` (stereo not drawn), 6.62%. Under `Nc1nc(N)c2cc(N(Cc3ccccc3)Cc3ccccc3)ccc2n1` stands 6.34%; under `Cc1ccc2nc3c(cc(C(=O)NCCc4ccccc4)c(=N)n3CCCOC(C)C)c(=O)n2c1`, 3.23%; under `CN(C)CCOc1ccc(-c2cc(-c3ccc(Cl)c(O)c3)c(-c3ccncc3)o2)cc1`, 10.4%. In turn, `CN1CCN(CCCN(Cc2cccc(-c3cccc(CNC4CCCC4)c3)c2)C(=O)CCC2CCCC2)CC1` had an IFI of 8.15%. The compound `Cc1cccc2nc(-c3ccc(-c4cccc(NC(=O)CCc5c[nH]cn5)c4)s3)[nH]c12` registered an IFI of 1.72%.

As to `Clc1ccc(C=NN=c2cc[nH]c3ccccc23)cc1`, the IFI worked out at 1.47%. With `Cc1ccccc1C1CCN(C2CCC(NC(=O)c3ccc(-c4cccc(C(F)(F)F)c4)o3)CC2)CC1` (stereo not drawn) the figure was 14%; with `O=C(CC1CCCC1)Nc1ccc2c(c1)CCC2`, 0.95%. With `CNC(=O)c1c(NC(=O)c2cccs2)sc2c1CCCC2` the figure was 2.24%; with `CCN1CCC(N(Cc2ccc(-c3ccc(C(F)(F)F)cc3)cc2)C(=O)Cn2c(CCc3cccc(F)c3F)cc(=O)c3c2CCCC3)CC1`, 6.38%. On to `COc1cc(CCNC(=N)/C=C/c2ccc(Cl)cc2)ccc1Cl`, for which the IFI turned out to be 5.8%. Under `O=C(Nc1cccc2ccccc12)N1CCc2cc3nccc(N4CCN5CCC[C@H]5C4)c3cc21` stands 2.86%; under `CCOc1c(CNCCCNc2cc(O)c3ccccc3n2)cc(Br)cc1OC`, 3.01%.
